Results taken from publication PMC4005673.
Where a chain is given by its changes, count along the chain named. Numbers in names are those of the source. No constants are given. Whether binding was seen depends on the method and setting. For part of these data: Binding seen in cells or lysates may run through a third protein. Some entries that bind do so weakly or less than the wild type.

By UniProt entry, the sequences of proteins in these tests, tags left out.
UniProt P12956: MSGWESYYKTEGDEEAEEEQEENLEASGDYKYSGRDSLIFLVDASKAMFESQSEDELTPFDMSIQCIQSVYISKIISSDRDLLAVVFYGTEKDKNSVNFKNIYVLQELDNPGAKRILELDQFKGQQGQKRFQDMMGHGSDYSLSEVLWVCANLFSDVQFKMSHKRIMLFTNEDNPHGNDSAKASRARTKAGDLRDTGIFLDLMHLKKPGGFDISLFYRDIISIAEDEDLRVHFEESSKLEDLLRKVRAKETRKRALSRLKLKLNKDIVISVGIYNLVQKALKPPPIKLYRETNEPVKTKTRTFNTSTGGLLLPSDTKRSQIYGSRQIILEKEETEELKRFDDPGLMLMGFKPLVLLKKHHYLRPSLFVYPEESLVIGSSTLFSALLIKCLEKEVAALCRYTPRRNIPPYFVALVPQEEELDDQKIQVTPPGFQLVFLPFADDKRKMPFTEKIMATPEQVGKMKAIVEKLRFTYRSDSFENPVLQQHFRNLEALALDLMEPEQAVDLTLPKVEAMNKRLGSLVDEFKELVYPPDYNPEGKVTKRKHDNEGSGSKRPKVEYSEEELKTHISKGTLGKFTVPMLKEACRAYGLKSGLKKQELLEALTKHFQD
UniProt P13010: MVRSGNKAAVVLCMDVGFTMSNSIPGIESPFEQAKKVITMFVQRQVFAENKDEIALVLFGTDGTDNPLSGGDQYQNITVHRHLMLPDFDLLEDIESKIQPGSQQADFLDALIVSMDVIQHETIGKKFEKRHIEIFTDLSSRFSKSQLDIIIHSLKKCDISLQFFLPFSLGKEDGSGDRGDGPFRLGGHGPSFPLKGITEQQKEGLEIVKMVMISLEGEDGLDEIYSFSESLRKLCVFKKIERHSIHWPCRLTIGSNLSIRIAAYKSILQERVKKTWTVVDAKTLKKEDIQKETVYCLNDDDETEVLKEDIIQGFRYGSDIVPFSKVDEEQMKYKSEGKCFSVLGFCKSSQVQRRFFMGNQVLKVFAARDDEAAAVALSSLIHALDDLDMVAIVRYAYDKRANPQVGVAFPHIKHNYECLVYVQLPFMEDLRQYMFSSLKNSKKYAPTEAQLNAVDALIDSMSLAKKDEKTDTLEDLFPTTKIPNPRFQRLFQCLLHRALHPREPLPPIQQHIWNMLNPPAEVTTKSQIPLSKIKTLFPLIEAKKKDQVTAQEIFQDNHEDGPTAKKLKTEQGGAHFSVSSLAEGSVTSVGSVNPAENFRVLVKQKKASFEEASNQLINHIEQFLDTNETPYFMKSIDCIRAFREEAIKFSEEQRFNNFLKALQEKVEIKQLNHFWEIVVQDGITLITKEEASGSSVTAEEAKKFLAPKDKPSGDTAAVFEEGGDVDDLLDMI

B1: Ku70 binding protein #5-Hera (K-H) (protein, UniProt Q9NQG5 1-326)
chain: MSSFSESALEKKLSELSNSQQSVQTLSLWLIHHRKHAGPIVSVWHRELRKAKSNRKLTFLYLANDVIQNSKRKGPEFTREFESVLVDAFSHVAREADEGCKKPLERLLNIWQERSVYGGEFIQQLKLSMEDSKSPPPKATEEKKSLKRTFQQIQEEEDDDYPGSYSPQDPSAGPLLTEELIKALQDLENAASGDATVRQKIASLPQEVQDVSLLEKITDKEAAERLSKTVDEACLLLAEYNGRLAAELEDRRQLARMLVEYTQNQKDVLSEKEKKLEEYKQKLARVTQVRKELKSHIQSLPDLSLLPNVTGGLAPLPSAGDLFSTD
B2: K-H L276A (protein, UniProt Q9NQG5 1-326)
chain: B1 chain with L276A

Columns and labels:
[1] = biological target: T1, Kub5-Hera (K-H), endogenous (human (endogenous in HeLa and human foreskin fibroblasts)) (UniProt Q9NQG5); assay: co-IP; co-IPs with the K-H-specific antibody after DNase treatment; data not shown
T1 sequence: B1 chain

[2] = biological target: T1, Kub5-Hera (K-H), endogenous (human (endogenous in HeLa and human foreskin fibroblasts)); assay: co-IP; nuclear extracts of shScr cells; K-H-specific antibody on Protein A/G beads; with and without ethidium bromide (5 uM); washed with NETN (0.1 M NaCl, 0.05% NP-40); western blot
[3] = biological target: T1, Kub5-Hera (K-H), endogenous (human (endogenous in HeLa and human foreskin fibroblasts)); assay: SEC; HeLa whole-cell extract (with turbonuclease) on Superose 6 HR 10/30 in 25 mM Tris-HCl pH 7.7, 100 mM NaCl, 5% glycerol, 1 mM DTT; fractions blotted for the indicated proteins; fractions 27-29 concentrated to see Artemis
Ku70 = Ku70 (UniProt P12956); assay: two-hybrid; yeast two-hybrid; growth on selection media and beta-galactosidase activity; screen for Ku70-binding partners, deletion analyses and point mutant

Row | Molecule | binding [1] | binding [2] | binding [3] | binding (Ku70)
1 | Ku70, endogenous (from UniProt P12956 1-609) | binds | binds | binds | –
2 | Ku86, endogenous (from UniProt P13010 1-732) | – | – | binds | –
3 | B1 | – | – | – | binds
4 | B2 | – | – | – | no binding
